Measured values from PubChem BioAssay AID485313 (National Center for Advancing Translational Sciences (NCATS), 2010).
Hit rate of the full screen: of about 320,000 compounds, about 7,600 (2.4%) were called active. The shares of active, inactive and inconclusive entries below differ from those in the screen. The call rests on the fitted dose curve; in most records, active means well fitted activation curve with a large enough effect; inconclusive means small, poorly fitted or top-dose-only effect; inactive means no such curve, though single readings can be large or run the other way. No potency is given beside an inconclusive call; the fits are too rough.

test: qHTS Assay for NPC1 Promoter Activators; conditions: Huh7 NPC1 promoter luciferase reporter, 24 h; series mostly up to 9.22 µM; activation: at the top concentration; further: nearly all actives have a fitted effect of over 60% in size;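 on activation: reporter is driven by a mutant NPC1 promoter; % of control where 0% means no effect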
Method in brief: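 In 1536-well qHTS, Huh7 cells harboring an NPC1 promoter–luciferase construct received compound for 24 h; activation was quantified by luminescence following luciferase reagent addition.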
Potency means the concentration at half of the fitted maximal effect; tags describe the fitted curve by direction and shape.

Q: Which Potency does the source give for `Cc1ccc(-c2noc(CN3CCOCC3)n2)cc1` here?
A: active: 3.16 µM

Q: Which Potency does the source give for `COc1ccc(/C=N/Nc2cc(OC)ncn2)cc1` here?
A: active: 3.55 µM

Q: With `CCOC(=O)C1=C(C(F)(F)F)Nc2ncnn2C1c1cc(OC)c(OC)cc1OC` (stereo not drawn) as the molecule, how does the “activation” value read?
A: inactive: 2.14%

Q: With `CC(C)(C)c1csc(N/N=C/c2cccnc2)n1` as the molecule, how does the Potency read?
A: inconclusive [activator, partial curve]

Q: For `CCOC(=O)C1CCCN(S(=O)(=O)Cc2ccc(Cl)cc2)C1` (stereo not drawn), which “activation” value is on record?
A: inactive: -0.305%

Q: Which Potency does the source give for `CCOc1ccc(-c2cn(-c3ccc(OC)cc3)c(SC)n2)cc1` here?
A: inconclusive [activator, partial curve]

Q: Which “activation” value does the source give for `CC1CCN(c2c(NCC3CCC(C(=O)NCc4ccccc4Cl)CC3)c(=O)c2=O)CC1` (stereo not drawn) here?
A: inactive: -0.57%

Q: Which Potency does the source give for `O=c1c(Cl)c(NCCCO)cnn1-c1nc2ccccc2[nH]1` here?
A: inconclusive [activator, full curve]

Q: Which Potency does the source give for `COC(=O)c1ccc(NC(=O)Nc2ccc3c(c2)nc(C)n3C)cc1` here?
A: inconclusive [activator, single point]

Q: Which Potency does the source give for `COc1cccc(-c2cc(C(=O)NC3CCCCC3)no2)c1` here?
A: inconclusive [activator, single point]

Q: Which Potency does the source give for `Nc1nc(-c2ccc(Br)cc2)cs1` here?
A: inconclusive [activator, partial curve]

Q: Which Potency does the source give for `CCCn1nnc(NC(=O)c2cccc(OCC)c2)n1` here?
A: inconclusive [activator, single point]

Q: Which “activation” value does the source give for `COc1ccc(CCNC(=O)[C@@H](NC(=O)c2ccccc2F)C(C)C)cc1OC` here?
A: inactive: -0.152%

Q: With `Cc1ccc(-n2ncc3c2CC(C)(C)CC3NC(=O)CCN2CCCCC2=O)cc1` (stereo not drawn) as the molecule, how does the “activation” value read?
A: inactive: -0.595%

Q: Which Potency does the source give for `Oc1ccc(C=Nc2ccccc2-c2nc3ccccc3[nH]2)c(O)c1` here?
A: inconclusive [activator, partial curve]

Q: With `COc1cc(/C=C/c2cc(C(=O)O)c3ccccc3n2)ccc1OC(F)F` as the molecule, how does the Potency read?
A: active: 3.16 µM

Q: Which Potency does the source give for `CCCOc1ccc(/C=N/Nc2ccccn2)cc1OC` here?
A: inconclusive [activator, single point]

Q: With `O=C(CSc1nc2ccccc2c(=O)n1NC(=O)c1ccccc1)c1ccccc1` as the molecule, how does the Potency read?
A: inconclusive [activator, partial curve]

Q: With `CCc1nnc(NC(=O)c2cc3ccccc3oc2=O)s1` as the molecule, how does the “activation” value read?
A: inactive: -1.1%

Q: With `COc1ccc2c(C)cc(SCC(=O)c3ccc4c(c3)OCO4)nc2c1` as the molecule, how does the “activation” value read?
A: inactive: -1.01%

Q: With `COc1cc(OC)cc(C(=O)Nc2nnc(-c3cccnc3)o2)c1` as the molecule, how does the “activation” value read?
A: inactive: -4.11%

Q: For `CC(=O)NC(NC(=S)Nc1cccc(Br)c1)C(Cl)(Cl)Cl` (stereo not drawn), which “activation” value is on record?
A: inactive: -2.36%

Q: Which Potency does the source give for `Cc1nc(N)sc1N=Nc1ccccc1C(F)(F)F` here?
A: inconclusive [activator, partial curve]

Q: With `O=C(Nc1ccc2oc(-c3ccccc3)nc2c1)c1ccccc1F` as the molecule, how does the Potency read?
A: inconclusive [activator, partial curve]

Q: For `N/C(=N\NC(=O)Nc1ccc(Cl)cc1)c1ccccn1`, which Potency is on record?
A: inconclusive [activator, single point]

Q: Which Potency does the source give for `Cn1c(C(=O)NCc2ccccn2)cc2c(=O)n3ccccc3nc21` here?
A: inconclusive [activator, single point]

Q: For `O=C(c1cc2ccccc2oc1=O)N(Cc1ccco1)C1CCS(=O)(=O)C1` (stereo not drawn), which Potency is on record?
A: inconclusive [activator, single point]

Q: Which Potency does the source give for `Cc1ccc(/C(N)=N/OC(=O)c2cccs2)cc1` here?
A: inconclusive [activator, partial curve]

Q: Which Potency does the source give for `CNC(=O)c1ccc(-c2nc(-c3ccccc3)cs2)cc1` here?
A: inconclusive [activator, partial curve]

Q: With `Clc1ccc2nc(N3CCCCC3)[nH]c2c1` as the molecule, how does the Potency read?
A: active: 1.58 µM

Q: With `Cc1ccc(-c2cnn(-c3cccc(C(F)(F)F)c3)c2N)cc1` as the molecule, how does the Potency read?
A: inconclusive [activator, partial curve]

Q: With `CN(C)c1ccc(-c2nnc(-c3ccc(S(=O)(=O)C(F)F)cc3)o2)cc1` as the molecule, how does the Potency read?
A: inconclusive [activator, partial curve]

Q: For `CCC(=O)Oc1ccc(-c2cnc3ccccc3n2)cc1`, which Potency is on record?
A: inconclusive [activator, single point]

Q: Which Potency does the source give for `COc1ccc2ccccc2c1/C=N/Nc1ccc(Cl)c(C(=O)O)c1` here?
A: inconclusive [activator, partial curve]

Q: Which Potency does the source give for `O=[N+]([O-])c1ccc(N=Nc2c(O)[nH]c3ccc(F)cc23)cc1` here?
A: active: 2.82 µM

Q: Which Potency does the source give for `COCCn1c(C)c(C)c2c(NCCc3ccccc3)ncnc21` here?
A: active: 0.355 µM

Q: With `CCC(=O)N/N=C(\C)CC(=O)Nc1ccc2c(c1)OCCO2` as the molecule, how does the “activation” value read?
A: inactive: -5.18%

Q: With `O=C(Nc1ccccc1)Nc1scc2c1c(=O)oc1ccccc12` as the molecule, how does the Potency read?
A: inconclusive [activator, full curve]

Q: For `CCN1CCN(c2ccc(NC(=O)c3ccc(Br)o3)cc2)CC1`, which Potency is on record?
A: inconclusive [activator, partial curve]

Q: With `O=C(c1ccco1)N1CCN(c2ccc(N3CCCCC3)nn2)CC1` as the molecule, how does the Potency read?
A: inconclusive [activator, partial curve]

Q: For `Cc1c(C(=O)N2CCOCC2)c(S(=O)(=O)Nc2ccccc2)c(C)n1C`, which “activation” value is on record?
A: inactive: 2.17%

Q: With `CC(C)(C)C(=O)/C=C(N)/C=C/c1ccccc1` as the molecule, how does the Potency read?
A: inconclusive [activator, single point]

Q: With `Cc1oc2ccc(O)c(CN3CCOCC3)c2c1C(=O)c1ccc(Cl)cc1` as the molecule, how does the Potency read?
A: inconclusive [activator, single point]

Q: With `Cc1ccsc1/C=C1\CCc2ccccc2C1=O` as the molecule, how does the Potency read?
A: inconclusive [activator, partial curve]

Q: With `C(=C\c1nc(-c2ccccc2)no1)/c1ccccc1` as the molecule, how does the Potency read?
A: active: 1.58 µM

Q: Which Potency does the source give for `Cc1ccc(NC(=O)CCc2c(C)nn(-c3ccc(N4CCCCC4)nn3)c2C)cc1C` here?
A: inconclusive [activator, partial curve]

Q: With `Cc1ccccc1NC(=S)NNC(=O)c1ccoc1C` as the molecule, how does the Potency read?
A: inconclusive [activator, partial curve]

Q: For `Cc1c(Br)c([N+](=O)[O-])nn1C(C)C(=O)N1CCc2ccccc2C1` (stereo not drawn), which Potency is on record?
A: inconclusive [activator, single point]
